# Test results from PubChem BioAssay AID504584 (Vanderbilt High Throughput Screening Facility, 2011).
# The list shows a part of the results. Shown are side measurements of this screen, not its main read-out; they come without a call.
# Assay: Ancillary pharmacology counter-screen of T-channel probe against GPCRs, transporters and ion channels (AID 504584)
# Settings: Ricerca radioligand binding panel, % inhibition, 10 uM, at 10 µM
smiles,measurement,setting,value
CC(C)(C)CCN1C[C@@H]2C(CNC(=O)c3cc(Cl)cc(Cl)c3)[C@@H]2C1 (some centres not stated),inhibition,measured here: Adrenergic alpha1B binding,71%
same,inhibition,measured here: Dopamine D2 binding,78%
same,inhibition,measured here: Dopamine D3 binding,77%
same,inhibition,measured here: L-type Ca benzothiazepine site,69%
same,inhibition,measured here: L-type Ca dihydropyridine site,49%
same,inhibition,measured here: Muscarinic M2 binding,51%
same,inhibition,measured here: Norepinephrine transporter binding,73%
same,inhibition,measured here: Opiate kappa binding,62%
same,inhibition,measured here: Serotonin 5-HT1A binding,46%
same,inhibition,measured here: Serotonin 5-HT2B binding,63%
same,inhibition,measured here: Sodium channel site 2 binding,102%
same,inhibition,measured here: hERG potassium channel binding,52%
